The RNAGym collection of RNA variant scans (doi:10.7554/elife.90254)
The source gives no read counts; variants with many changes may rest on few reads.

B1: LINE1-mini (parent)
chain: GGCAGAGCUCAACACAGCGUGGCAAAGUGGCUGUGGCUAGACUGCC

Variants of: B1
Assay: self-cleavage, relative activity (ratio to wild type); higher = more cleavage; in vitro, sequencing; the parent is a self-cleaving ribozyme

Variant	self-cleavage
A4U G27C G29U	0.02
A4G A6U G7U A11U G21U	0.01
C3U G19A A26C A39U	0.12
A16C G35U U38C	0.18
G2U C18U C37A	0.01
C3G G40C C46U	0.05
A6G C13U U20C A26U	0.02
C8G A16C G19C	0.01
G5U A14U G29A C31U	0
C8U C10G G17A U20C G21U G29U U43A	0.01
C10A C37U A39C A41U	0.06
G7C C8A G35U	0.39
U20A A39C C42A	0.05
A12C A25C G35U	0.03
G5C A14G G29C	0.01
U20C U32G U34C C37A C42A	0.03
G1C G7A U38C A39C	0.08
C3U G21A G29C C37U C45U	0.06
C13A G19U G36C	0.01
A4U G7U C42U	0.03
C3U U20C C45U	0.05
G7A C10A C13A C15U C18U G29A	0.01
U9C C23G U28A G29A C31G	0.02
G5C C10A G21C C31U G40U	0.02

Variant	self-cleavage
G1A G2U C3U A4G G5C C23A	0.69
A4U G17A G33A G36C	0.06
A11U G40U C42U C46A	0.02
C18U G27A U43G	0
G17C U28A G33U G44U	0.01
C18A G22C C37G C42U	0.03
U9C A12C G17C C23U A24U A26U C31U C37U A41G	0
C10A C13G G21U G27A	0.03
A6C G19U C37U	0.01
G17A C18A U20A U28C	0.02
C8U G19U U32G A39U	0.07
C13U A14U C18A G19U G21C G30U C37A	0.13
G5C G19A U28C G33C	0.07
U20A U28G G30C C37U	0.03
G1U G5A G21C A24U A25C G30A A39U	0.05
A4C G5A U43A C45U	0.01
G2C C10A C15G G22U C31G	0.02
C15A G19C U20C C23U	0.01
C8G C15A U28C	0.04
A11C U20A C23U A24U	0.04
A14G C23A G44A	0.07
G5U U20G G29C G40A	0
A11C G40A C46G	0.01
G5C C37G G40U A41U	0.08

Variant	self-cleavage
G1A U38G C42U	0.07
C8G U9C U43A	0.03
G1A G2U A12G	0.06
U9G A12G C23A	0.01
A11G G17A C45U	0.03
G2A C8U G17U	0.41
U20G A24U G27U A39U	0.02
C10G G22A U34A U38A	0.03
C3A A24C G30C C37U G44U C46G	0.07
G5U U9G G27C	0.05
G27C G33A U38A	0.11
G7A A11U A12C	0.01
G1A C23U G29A G44U	0.23
G1U U9C C10A	0.03
A12C C13G U20G C31G U43C	0
C8G C18U G19U G29U	0.02
U9C G29U C31G C37U	0.08
G1A C15U G19U A24C G30A	0.04
G2A A16C C37U G40U	0.2
U9G A12U A24G G33U U38C C45A	0.01
U9A C23U G35U	0.07
C10U G40A A41C	0.03
G7U G29C G30A C31G G36U	0.05
G19U U32C G36A	0.08

Variant	self-cleavage
G17A G40A G44U	0.02
C15U C37U U38G	0.02
G22C C31A G35A	0.08
G1U A4C G19U G30A U32A U43A	0
C18U G27U U43A	0.01
G40U A41G G44C	0.08
G2U A6C C10A C37A	0
G5U G19C C42U	0.07
C18G G21C U28G U38G A41G	0.01
C31G U38A C46G	0.05
A4C G5U U34A	0.06
G2U C8U G33A	0.03
G21U G35U A41G C42U	0.05
C15A A26U G40U	0.03
A6G A25U G27U G29A A41G C45A	0.04
A4U U32C C42A	0.06
G1C C10A C23U	0.01
A4C C10A C15U A16U G21C U34G	0
U9C G19A C46A	0.01
A14U C23G G29U	0.22
C3U C10A C31A U34G C37A	0.01
A12G A16G G17U	0.04
G7A U9C C13U G30C	0.1
C8A G29U G33C G36A	0.03

Variant	self-cleavage
C18A G33C C42A	0.04
G1A A4G C23U G36A U38G C42G	0.01
G7U G27C G30U G33U	0.03
U20C C23U U32C U38A	0.16
C8A G22A G27U	0.06
A6U C10A C13U G36C C37G	0
G7U G22U A24G	0.07
A25U G27C G29C	0.51
C15U G19U G29U C37A	0.04
C8G G27U G30A	0.12
G2U C3A U28A	0.53
C10G C37A C42U	0.02
C10A G33C C46A	0.03
C8U C15G G17U A26G	0.24
C8A A26U C37A	0.05
A6G C8G U9C C10A C42G	0.02
A26C G40U C45U	0.07
A25U G35C A41G	0.05
C8U C15A G22A C37U	0.18
G7A A16U G19U G21C C37G G44A	0.05
G7U A14C G44A	0.05
G1C U9C C13A G22U C23G	0.02
A6C C10A A11U U20C G30U G35A	0.04
G2A A4U G29C U43G	0.06

Variant	self-cleavage
A11U A26U G36C	0.01
U9C C10A G27A G40U	0.02
C3A C18U U32G	0.09
G7C G17U U34G	0.07
G17A G22U C42U	0.09
A24G U32A G44A	0.06
G2U A4U G27A	0.01
A6G C8G C13G	0.1
A16U G30U G33A	0.2
C8U A25C G27U G29C A39G	0.01
G7A C15U G35A	1.38
G1A A4G A14C A26U C31U	0.02
G5U G21U A41U	0.04
G19C G33A U34A	0.08
G5U A14C U28G A39C	0.02
C3G A11C C15U G19A A26C G29A C42A	0.02
G5A U32C A41U	0.07
G19C G22U U28C G33C	0.41
C10A G33U C46A	0.02
C15U C18A U20G	0.03
C8A A26U G29C A41U	0.03
A14U C23A G29A G36A	0.14
A6G C10A G22A C31A	0.02
G2U C13U A41C	0.01

Variant	self-cleavage
A6G U20C C42G	0.06
G2C C15A U28A G29U	0.01
G7U G29U G35C C46A	0.04
G2U C10U G22A	0.01
A11U C18G G33U C46A	0.04
G21C U38A A39C	0.32
C3U C23A A41C	0.07
G7C C10A G44U	0.05
A26U G33C C37G C45A	0.02
G5U C18G G21U G22U	0.07
A6U C23U C42U	0.4
A11C C13A G27C	0.01
A16U G19A C23U	0.16
C15A G19A G21A G22C A41G U43A	0.01
G17U G35U U43A	0.11
A4C G17C U38C C42G	0.02
A24U A26U C31U	0.04
G7U C18A U38A U43C	0.03
A4G C15U G22U G35C U43G	0.04
G7U G40C C46A	0.25
U20C G21C A25U	0.39
G1U C3U A12G G33U U34G	0.13
A24U G29U U43C G44C	0.06
